From PubChem BioAssay AID1508624 (National Center for Advancing Translational Sciences (NCATS), 2021)
In all, about 48,000 compounds went through this assay and about 120 (0.25%) were called active. Roughly 4% stayed inconclusive and do not appear here. Calls follow the shape of the dose curve; as a rule, active = well fitted activation curve with a large enough effect; inconclusive = small, poorly fitted or top-dose-only effect, or another doubt; inactive = no such curve, though single readings can be large or run the other way. The list shows a part of the results.

assay: Primary qHTS for Identification of Small Molecule Activators of Huntingtin-Antisense Promoter Activity; conditions: HEK293 HTT-AS promoter firefly luciferase reporter, 24 h; series mostly up to 57.5 µM; activity change, positive = activation: at the top concentration; also: nearly all actives have a fitted effect of over 55% in size
How it was run: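 Firefly luciferase readout (Dual-Glo, 10 min RT) after 24 h, 37 °C compound exposure (final up to 57.5 uM) of HEK293 reporter cells cultured 24 h beforehand; PTC124 at 50 uM final as control inhibitor; activity scaled vehicle 0%, zero RLU -100%.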

Activity change, positive = activation, inactive:
COc1cc2ncnc(Nc3cccc(Br)c3)c2cc1OC -33.5%
COCCN1C(=O)N(c2cccc(OC)c2)C(=O)C1CC(=O)Nc1ccccc1 (centres undefined) -18%
O=C(NCc1ccc(Cl)cc1)C(=O)NCC(c1ccc2c(c1)OCO2)N1CCOCC1 (centres undefined) -17.8%
COc1cc2ccccc2cc1C(=O)N1CCN(c2nc3c(F)cccc3s2)CC1 8.89%
CCCCc1nn2c(=O)cc(COC(=O)c3cccc(NC(=O)c4cccs4)c3)nc2s1 3.68%
Cn1c(COc2ccccc2C(C)(C)C)nc2ccccc21 -37.7%
COc1ccc(S(=O)(=O)c2cc3cc(C(C)(C)C)cc(O)c3oc2=O)cc1 -15.1%
CCCCCn1c(=N)c(S(=O)(=O)c2ccc(C)cc2)cc2c(=O)n3cc(C)ccc3nc21 1.71%
CC(C)(CC(=O)NCc1ccc(Cl)cc1Cl)CC1=NS(=O)(=O)c2ccccc2N1 -59.6%
COC(=O)c1ccc(NS(=O)(=O)c2ccc3c(c2)n(C)c(=O)c(=O)n3C)cc1 -13.9%
CCOC(=O)c1ccc(CN(Cc2ccc(F)cc2)S(=O)(=O)c2ccc(F)c(C(=O)Nc3ccccc3C(F)(F)F)c2)cc1 -13.4%
Cn1c2c(c(=O)n(C)c1=O)C(c1ccccc1C(F)(F)F)CC(=O)N2 (centres undefined) -14.1%
CCNC(=O)CC1C(=O)N(c2ccc(F)cc2)C(=O)N1Cc1ccc(OC)c(OC)c1 (centres undefined) -7.93%
Cc1ccc(C(=O)N2CCN(c3cccc(Cl)c3)CC2)cc1-n1c(C)nc2cccnc21 -20%
O=C(c1ccc2c(c1)N(Cc1cccc(Cl)c1)C(=O)c1ccccc1S2(=O)=O)N1CCc2ccccc21 -22.4%
CCc1ccccc1N(CC)C(=O)C(=O)Nc1ccc2nc3n(c(=O)c2c1)CCCCC3 -17.8%
COc1cc(Cl)c(C)cc1NC(=O)C1CCCN(c2ncnc3onc(-c4ccc(F)cc4)c23)C1 (centres undefined) -23%
COc1ccc(-n2c(SC)nc3sc4c(c3c2=O)CCN(C(C)=O)C4)cc1 -12.6%
FC(F)(F)c1cccc(N2CCN(c3nc4ccccc4n4cnnc34)CC2)c1 -34.3%
Cc1ccc(NC(=O)CSc2nnc(-c3cc4occc4n3C)n2-c2ccccc2C)c(C)c1 -35.9%
COc1ccc(CNC(=O)C2CCN(C(=O)c3cnn(-c4ccccc4)c3-n3cccc3)CC2)cc1 -43.8%
c1ccc(-c2ccc(C(c3ccccc3)n3ccnc3)cc2)cc1 (centres undefined) -8.33%
Oc1c(Cl)cc(Cl)c2cccnc12
Cc1ccc2c(c1)N(C(=O)Nc1ccc(Br)cc1F)CCO2 -10.3%
Cc1ccn2c(=O)cc(COc3ccc(NC(=O)C(C)(C)C)cc3)nc2c1 -4.44%
COC(=O)c1ccccc1NC(=O)CSc1n[nH]c(C)n1 6.43%
CCS(=O)(=O)N1CCc2cc(C(=O)NC(C)c3ccccc3)ccc21 (centres undefined) -8.72%
CC(C)Oc1ccc(CNC(=O)CN2C(=O)c3cccnc3Oc3ccc(Cl)cc32)cc1 -30.7%
O=c1c2sc3ccccc3c2n(Cc2cccc(C(F)(F)F)c2)c(=O)n1-c1ccccc1 -29.1%
CCCCN(C)CCNC(=O)c1cc(=O)[nH]c2ccc(S(=O)(=O)N3CCCCCC3)cc12 0%
Cc1cc(NC(=O)c2ccc(-c3ccc(Cl)cc3)o2)cc(-c2nc3ncccc3o2)c1O -3.55%
Cc1ccc(CNC(=O)c2cnc(N(C)C)nc2)cc1 -8.01%
COc1ccc(NC(=O)c2oc3ccccc3c2NC(=O)c2cc(=O)c3c(C)cc(C)cc3o2)cc1 -1.79%
Cc1nc(-n2nc(C)c(Cc3ccccc3Cl)c2C)sc1C(=O)N1CCCCC1C (centres undefined) -11.6%
COc1ccc(-c2nc(C(=O)Nc3cccc(C(C)=O)c3)nn2-c2ccc(Cl)cc2)cc1 -14.4%
O=S(=O)(c1ccc2ccccc2c1)n1nc(-c2ccco2)nc1NCc1ccc(F)cc1 -8.11%
Cc1cc(NC(=O)CCCn2c(C)c3cnn(-c4ccccc4)c(=O)c3c2C)ccc1Br -32.8%
CCOc1ccccc1NC(=O)CN1C(=O)CC(c2ccco2)Sc2ccccc21 (centres undefined) -41%
Cc1cc(C)cc(C(=O)N(Cc2nc(-c3ccc(Cl)cc3)no2)C(C)C)c1 -25.1%
COCCNC(=O)C(=O)NCC(c1ccc2c(c1)OCO2)N1CCOCC1 (centres undefined) -10.7%
COC(=O)c1ccc(OCC(O)Cn2cnc3cc(C)c(C)cc32)cc1 (centres undefined) -10.4%
CCN(C(=O)CSc1ncc(S(=O)(=O)c2ccc(C)c(Cl)c2)c(=O)[nH]1)c1cccc(C)c1 -13.8%
COCCCNC(=O)c1cc2n(n1)CCCN(Cc1ccc(C)cc1)C2=O 3.98%
CC(=O)SC[C@@H](C)C(=O)N1CCC[C@H]1C(=O)N[C@@H](Cc1ccccc1)C(=O)O -7.32%
CC[C@H](C)[C@H](N)C(=O)O 1.66%
COc1ccc(OC)c(NC(=O)c2cc3c(s2)-c2ccccc2SC3)c1 7.99%
Cc1c(NS(=O)(=O)c2cccc(C(=O)O)c2)c(=O)n(-c2ccccc2)n1C 11.5%
COc1ccccc1-c1c(C)nn2c(N3CCN(c4cccc(Cl)c4)CC3)cc(C)nc12 -12.5%
O=C(CSc1nnc(CNC(=O)c2c(F)cccc2Cl)o1)Nc1ccccc1F -2.19%
CCC(=O)N1c2ccccc2CC1C(=O)NCc1ccccc1C (centres undefined) -6.47%
CS(=O)(=O)c1ncc(N(Cc2ccco2)Cc2ccco2)c(C(=O)Nc2ccccc2Br)n1 -22.7%
Cc1ccc(-n2ncc(C(=O)NC3CCCC3)c2C2CCN(C(=O)OC(C)(C)C)CC2)c(C)c1 -17%
CC1=C(C(=O)OCc2ccc(C)cc2)C(c2c(Cl)cccc2Cl)CC(=O)N1 (centres undefined) -20.8%
Cc1ccc(C)c(NS(=O)(=O)c2ccc3c4c(cccc24)C(=O)N3)c1 -65.1%
CNc1nc(Oc2ccc(=O)n(C)n2)nc(N2CCOCC2)n1 -1.16%
COc1cccc(Cn2nnc3c(=O)[nH]c(C4CCCN(C(=O)c5ccc(C)cc5)C4)nc32)c1 (centres undefined) -28.7%
NC(=O)[C@@H]1CSSCCC(=O)N[C@@H](CCCCN=C(N)N)C(=O)NCC(=O)N[C@@H](CC(=O)O)C(=O)N[C@@H](Cc2c[nH]c3ccccc23)C(=O)N2CCC[C@H]2C(=O)N1 0.284%
CCOc1ccccc1NC(=O)CC1C(=O)NCCN1C(=O)c1ccc(F)cc1 (centres undefined) -4.12%
COc1ccc(OC)c(Nc2nc3ccccc3n3c(C)nnc23)c1 -4.36%
COc1ccc(-c2nc(CN3CCC(C(=O)NCCCN4CCN(c5ccccc5F)CC4)CC3)c(C)o2)cc1OC -13.9%
O=C(Nc1cc(-c2nc3cc(Cl)ccc3o2)ccc1Cl)c1cccs1 -5.43%
COc1ccc(COC(=O)c2[nH]c3c(c2C)C(=O)CC(c2ccc(OC)c(OC)c2)C3)cc1 (centres undefined) -74%
C#CC(C)(CC)NC(=O)Cn1nnc(-c2ccc(OCc3ccccc3F)cc2)n1 (centres undefined) -12.7%
CN(C1CCCCC1)S(=O)(=O)c1ccc2c(c1)c(=O)c(C(=O)NCCc1ccc(Cl)cc1)cn2C 3.19%
CSCCC(NS(=O)(=O)c1ccc2c(c1)oc(=O)n2C)C(=O)NCCc1ccc(C)cc1 (centres undefined) -9.45%
Cc1ccc(-c2nnc(Nc3cccc(Cl)c3)c3ccccc23)cc1S(=O)(=O)NCC1CCCO1 (centres undefined) -2.26% [at 11.5 µM, percent change from vehicle, -100% = no light]
CCS(=O)(=O)N1CCC(C(=O)NCCC(C)C)CC1 -4.82%
COc1cccc(OCCCCn2c(-c3ccc(Cl)cc3)nc3ccccc3c2=O)c1 -13.4%
Cc1ccc(-c2onc(C)c2C)cc1S(=O)(=O)NCc1ccco1 -24.4%
O=S(=O)(NCCSc1nnnn1-c1ccccc1)c1ccc(F)cc1 -16.8%
O=c1[nH]cnc2nc[nH]c12 5.36%
CC(=O)Nc1ccc(S(=O)(=O)NC2(C(F)(F)F)NC(=O)N(c3ccc(C)cc3)C2=O)cc1 (centres undefined) -3.9%
O=C(c1cccc([N+](=O)[O-])c1)N1c2ncnn2C2(CCCCC2)[C@@H]2CCCC[C@@H]21 -29.4%
Cc1ccc(S(=O)(=O)c2cnc(SCC(=O)Nc3ccc4c(c3)OCCO4)[nH]c2=O)cc1 -5.66%
CC(C)(C)c1ccc(O)c(O)c1 -38.8% [at 116 µM, percent change from vehicle, -100% = no light]
Cn1c(SCC(=O)N2CCCc3ccccc32)ncc(C(=O)Nc2ccc(Cl)cc2)c1=O 7.33%
COc1cccc(CN(Cc2ccco2)c2cnc(S(C)(=O)=O)nc2C(=O)Nc2cccc(Cl)c2C)c1 -25.7%
CCc1nc2nc(C)cc(Nc3ccc(OC)cc3)n2n1 -14.8%
COc1ccccc1Nc1nn2c(=O)c3ccc(C(=O)NCc4cccs4)cc3nc2s1 -34.2%
COc1ccc(-c2cn3c(n2)sc2cc(C(=O)NCc4ccccc4OC)ccc23)cc1 29.4%
COC(=O)c1cc(S(=O)(=O)NCC2CCN(Cc3cc(C)ccc3C)CC2)c[nH]1 -6.26%
Cc1ccc2c(=O)c(C(=O)c3ccc(F)cc3)cn(CC(=O)NCc3ccccc3)c2n1 -8.87%
COc1cccc(Cn2c(CNC(=O)C(C)C)nc3cccnc32)c1 -5.71%
COc1ccc(OC)c(S(=O)(=O)NCCc2sc(-c3ccc(C)cc3)nc2C)c1 -12.6%
COc1ccc(N2CCN(C(=O)c3ccc(C)c(NC(=O)c4nsc5ccccc45)c3)CC2)cc1 20.2%
CCOC(=O)c1c(NC(=O)/C=C/c2ccccc2)sc2c1CCCC2 -4.92%
COc1ccc(C(=O)Nc2ccc(-c3nc4ncccc4o3)cc2)cc1 12.8%
CC(C)(C)OC(=O)N1CCC(c2c(C(=O)NCc3ccccn3)cnn2-c2ccccc2)CC1 -8.52%
Cc1ccc(S(=O)(=O)c2cnc(SCC(=O)Nc3cc(C)cc(C)c3)nc2N)cc1 -40%
Cc1cccc(OCc2ccc(-c3nc(C#N)c(NCCN(C)C)o3)o2)c1 -7.4%
Cc1cc(Nc2ccc(C)c(C)c2)n2cnnc2n1 -4.23%
COc1ccc2c(c1)c1c(c(=O)n(-c3ccccc3C)c(=O)n1CC(=O)NCc1ccc(C)cc1)n2C -29.1%
COC(=O)c1ccccc1NC(=O)Cn1cc(S(=O)(=O)Cc2ccccc2F)c2ccccc21 -44.2%
CCOC(=O)c1c(C)oc2nc(C)nc(NCc3ccccc3Cl)c12 -5.91%
